From PubChem BioAssay AID504832 (National Center for Advancing Translational Sciences (NCATS), 2011)
The whole screen tested about 310,000 compounds, of which about 18,000 (5.8%) were called active. Inconclusive means that the source gave no clear call. Such entries were picked first, then a sample of the others. The call rests on the fitted dose curve; in most records, active means well fitted inhibition curve with a large enough effect; inconclusive means small, poorly fitted or top-dose-only effect, or another doubt; inactive means no such curve, though single readings can be large or run the other way. No potency is given beside an inconclusive call; the fits are too rough.

test: Primary qHTS for delayed death inhibitors of the malarial parasite plastid, 48 hour incubation; conditions: P. falciparum luciferase growth in erythrocytes; series mostly up to 28.7 µM
Summary of the method: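 Compounds are pin-transferred into medium, infected erythrocytes (2% hematocrit, 0.1% parasitemia final) are added, and plates sit one parasite generation at 37 C in 5% CO2. Detection reagent is then added and luminescence measured.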
Potency means the concentration at half of the fitted maximal effect; tags describe the fitted curve by direction and shape.

Row | Structure (SMILES) | Potency
1 | CC(C)CNC(=O)C1CCN(c2ccc(S(=O)(=O)N3CCOCC3)cc2)CC1 | active: 7.38 µM
2 | O=C(Nc1ccc(S(=O)(=O)N2CCCCC2)cc1)c1cccnc1Cl | inconclusive [inhibitor, single point]
3 | CC(C)(C)c1cc(C=C(C#N)C#N)cc(C(C)(C)C)c1O | active: 2.62 µM
4 | Cc1cc(C)c(Nc2cc(S(=O)(=O)O)c(N)c3c2C(=O)c2ccccc2C3=O)c(C)c1 | inconclusive [inhibitor, single point]
5 | CC(=O)c1ccc(NC(=S)N(CCCN(C)C)Cc2ccccc2)cc1 | inconclusive [inhibitor, single point]
6 | O=C(Nc1cccn(Cc2c(Cl)cccc2Cl)c1=O)c1ccccc1Cl | inconclusive [inhibitor, single point]
7 | Cc1cccc(NC(=O)[C@@H]2CCCN2C(=O)OC(C)(C)C)c1C | inactive
8 | Cc1cc(Cl)ccc1NC(=O)CSc1nnc(Cc2cccs2)n1Cc1ccco1 | inconclusive [inhibitor, single point]
9 | CCNC(=O)/C(=C/c1cccc([N+](=O)[O-])c1)NC(=O)c1ccc(C)cc1 | inactive
10 | Cc1ccc(Nc2nc(-c3ccncc3)nc3ccccc23)cc1 | inconclusive [inhibitor, partial curve, poor fit]
11 | CCOc1ccc(N(CC(=O)Nc2ccc(C)c(C)c2)S(=O)(=O)c2c(C)noc2C)cc1 | inconclusive [inhibitor, single point]
12 | CCCC[C@@H]1CNCCN1CCc1cc(C(F)(F)F)cc(C(F)(F)F)c1 | inconclusive [inhibitor, single point]
13 | Cc1nc(Nc2ccc(F)cc2)[nH]c(=O)c1CCC(C)C | active: 5.86 µM
14 | CN(C)S(=O)(=O)c1cccc(COc2ccccc2C(=O)Nc2ccccc2)c1 | active: 10.4 µM
15 | CC(C)Cc1ccc(S(=O)(=O)Nc2ccccn2)cc1 | inconclusive [inhibitor, single point]
16 | O=C1NN(c2ccccc2)C(=O)/C1=C/c1cccs1 | inactive
17 | CCN(CC)c1ccc(NC(=O)c2ccc3c(c2)c(C)c(C)n3C)cc1 | inconclusive [inhibitor, partial curve, poor fit]
18 | COc1ccc(C(=O)C2CCCN(Cc3cccn3-c3cccnc3)C2)cc1OC (stereo not given) | inconclusive [inhibitor, partial curve, poor fit]
19 | CCN1CCN(Cc2ccc(NC(=O)c3cc(NC(=O)C(=O)c4c[nH]c5ccccc45)cc(OC)c3)cc2C(F)(F)F)CC1 | active: 0.37 µM
20 | O=C1C2C3C=CC(CC3)C2C(=O)N1c1cccc(Br)c1 (stereo not given) | inactive
21 | Cc1ccc(C(=O)Nc2cccc(S(=O)(=O)N3CCCC3)c2)o1 | inconclusive [inhibitor, single point]
22 | CC[n+]1c(/C=C(\C)Nc2ccccc2)sc2ccccc21 | active: 5.22 µM
23 | O=S(=O)(NCC(c1ccco1)N1CCc2ccccc21)c1ccccc1 (stereo not given) | inconclusive [inhibitor, single point]

Row | Structure (SMILES) | Potency
24 | CSc1ncc(C(=O)Nc2ccc(Br)cn2)c(C)n1 | inconclusive [inhibitor, partial curve, poor fit]
25 | Cc1ccccc1OCCNC(=O)c1ccco1 | inactive
26 | COc1ccc(C(=O)COc2ccccc2C(=O)Nc2ccccc2)cc1 | inconclusive [inhibitor, single point]
27 | O=C(CN1C(=O)c2ccccc2C1=O)OCC(=O)c1ccc(F)cc1 | inconclusive [inhibitor, single point]
28 | COc1cc(/C=N/NC(=O)c2ccccn2)ccc1OC(=O)c1cccs1 | inactive
29 | CCOC(=O)C1CCN(C(=O)c2ccc(OC3CCN(C(=O)CCOC)CC3)cc2)CC1 | inactive
30 | CC(C(=O)N1CCc2ccccc21)N1CCN(S(=O)(=O)c2cccc(C(F)(F)F)c2)CC1 (stereo not given) | active: 11.7 µM
31 | Cc1cccc(NC(=O)CSc2nnc(-c3ccc(S(=O)(=O)N4CCOCC4)cc3)n2C)c1 | inconclusive [inhibitor, partial curve]
32 | COc1ccc(C)cc1S(=O)(=O)N1CCN(c2cccc(C(F)(F)F)c2)CC1 | inconclusive [inhibitor, single point]
33 | Cc1cc(/C=C2/SC(=O)N(CC(=O)N3CCCC3)C2=O)c(C)n1C | inactive
34 | NC(=O)c1ccccc1OCC(=O)N1CCCC1c1ccc2c(c1)OCCCO2 (stereo not given) | inconclusive [inhibitor, full curve]
35 | CCc1ccccc1NC(=O)c1cc(S(=O)(=O)N(C)C)ccc1N1CCCC1 | inconclusive [inhibitor, single point]
36 | Cc1nn(CCc2n[nH]c(=S)n2-c2ccc(F)c(Cl)c2)c(C)c1[N+](=O)[O-] | inactive
37 | COc1ccc(CC2(C)OC(c3ccc(C)cc3)=NN2C(C)=O)cc1 (stereo not given) | inconclusive [inhibitor, single point]
38 | CC(=O)N(C1=C(Cl)C(=O)c2ccccc2C1=O)C1CCCCC1 | inconclusive [inhibitor, single point]
39 | O=C(Nc1ccnn1C1CCN(Cc2ccc(OC(F)F)cc2)CC1)C1CCCC1 | inconclusive [inhibitor, single point]
40 | COc1ccc(NC2=C(c3ccc(OC)cc3)C(=O)c3ccccc32)cc1 | active: 0.657 µM
41 | CCCC(C(=O)NC1CCCCC1)N(CC1CCCO1)C(=O)CNS(=O)(=O)c1ccc(F)cc1 (stereo not given) | inconclusive [inhibitor, single point]
42 | CC(NC(=O)c1cccs1)C(S)c1ccccc1 (stereo not given) | inactive
43 | COCCn1cnc2c(c1=O)c1nc3ccccc3nc1n2/N=C/c1cccc(OC)c1 | inconclusive [inhibitor, single point]
44 | CC(=O)COC(=O)CCc1nc2ccccc2[nH]c1=O | inactive
45 | Cc1ccc(C)c(S(=O)(=O)N2CCN(C(=O)C3CC3C)CC2)c1 (stereo not given) | inconclusive [inhibitor, single point]
